# According to the supplement of paper PMC3334620:
# In all, about 33,000 sequences were measured (“E-score (-0.5 to 0.5)”: median about -0.013, highest 2% from about 0.3 on). This is one part of the list.
# Biological target: T1, Msn1 (UniProt P22148)
# T1 sequence: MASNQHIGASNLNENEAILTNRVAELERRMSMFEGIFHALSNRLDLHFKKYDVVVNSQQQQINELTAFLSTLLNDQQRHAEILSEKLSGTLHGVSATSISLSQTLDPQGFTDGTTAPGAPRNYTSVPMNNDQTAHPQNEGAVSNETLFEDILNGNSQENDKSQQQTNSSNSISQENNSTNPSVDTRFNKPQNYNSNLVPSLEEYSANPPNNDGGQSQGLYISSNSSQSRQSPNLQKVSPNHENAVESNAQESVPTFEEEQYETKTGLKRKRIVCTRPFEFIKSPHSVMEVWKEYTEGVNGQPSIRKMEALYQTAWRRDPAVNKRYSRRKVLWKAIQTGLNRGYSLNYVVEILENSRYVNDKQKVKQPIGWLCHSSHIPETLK
# Test: PBM E-score (8-mer binding enrichment) (E-score (-0.5 to 0.5)); higher = stronger / more preferred TF binding; most listed sequences are background and not binding sites
# Settings: protein concentration: 200 nM; construct: GST-full length
# Method in brief: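 Bound GST-tagged yeast transcription factors, applied at about 100-200 nM to double-stranded universal all-10-mer Agilent arrays, were detected with fluorescent anti-GST. Scans were normalised with masliner. A modified Wilcoxon-Mann-Whitney statistic, the E-score, was assigned to each ungapped eight-base word pooled with its reverse complement by the Universal PBM Analysis Suite.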
row,Sequence,PBM E-score
1,CGGGGGGC,-0.362
2,CACGTGTC,0.257
3,GGGCCCAA,-0.152
4,AAATCTAA,-0.0324
5,AGTTTTGA,-0.0723
6,GCCTGAAC,-0.251
7,CCCTACGC,-0.241
8,CCCCACCC,-0.059
9,CTTCAGAA,0.0967
10,GGGCCACC,-0.185
11,AAAGGAAA,0.0167
12,ATGTAACA,0.0892
13,CTCGGCGA,0.153
14,GTGTTTCA,-0.0738
15,GCTATAAC,-0.107
16,AGGAAGGC,-0.135
17,ACCTTCGG,0.136
18,CAATGTCC,0.47
19,ATCAGCCC,-0.282
20,CCATATTC,-0.0353
21,AGTATTAG,0.15
22,AAATCGGC,0.061
23,CGGTGACC,-0.155
24,AGCAACCA,0.0157
25,AAAAACCT,0.0792

row,Sequence,PBM E-score
1,CTGCCCGA,-0.0218
2,AAGCGCCC,-0.264
3,AAAGGGTA,0.0271
4,TCAAATCA,0.0292
5,CGAGTCTA,-0.271
6,CAAGGGGA,0.0601
7,AGGGCCTG,-0.165
8,GAACATTA,0.195
9,ATTGCCTG,0.00362
10,CACGGATG,-0.00476
11,AACTGATG,-0.0617
12,CCATCACA,-0.184
13,GTACGAAA,0.249
14,GAACTATA,0.232
15,ACTCTAGG,-0.144
16,CGGACAGC,0.182
17,CCGAGAGA,-0.0155
18,AACTCATA,0.117
19,AGTTATAT,0.105
20,ACGCGCGA,-0.0535
21,AAAGAGCA,0.0285
22,GTTACCAA,0.14
23,ACAGAGTC,-0.0137
24,GAGTTTCC,-0.0421
25,GTTGCTCA,-0.14

row,Sequence,PBM E-score
1,CGGGACAG,0.197
2,AGCGCCAA,-0.244
3,ACTCACCT,-0.373
4,CGGTAAAC,-0.0747
5,AATGGCGC,-0.106
6,AAGGTGGA,-0.16
7,AGACATCG,0.226
8,ATCCTGAA,0.0111
9,ATGCCAAA,-0.00556
10,CGATTACA,0.0854
11,GTCCCCGA,0.144
12,CGACTCAA,0.0429
13,CGACGTAA,0.167
14,ACCGGTAT,-0.11
15,CACAGCAA,0.252
16,ACTGCTAT,-0.146
17,TAGACTCA,-0.147
18,ACTCGGTC,0.0379
19,GCGCAAGC,-0.271
20,ACACCAGC,-0.204
21,ACGCTTAA,-0.0228
22,ATTAGTTG,0.174
23,GCCTACTA,0.0105
24,CTAATACC,-0.0913
25,ACTAGTCC,0.183

row,Sequence,PBM E-score
1,AACTCGCG,0.137
2,GGGTAAGA,-0.0207
3,TACCATCA,-0.243
4,ATAATAAA,0.187
5,AGGGGACC,-0.207
6,CGCTTTGA,-0.00333
7,ATATTTAA,0.258
8,GACATTGC,0.434
9,ATGGTCCC,-0.169
10,CGGTACTC,-0.0617
11,AAGAGCGG,-0.132
12,AGAGCAAT,-0.169
13,TCACCCGA,0.0453
14,CACCTTTC,0.0325
15,AAAAAGAC,0.219
16,AGCTGATA,-0.135
17,TCAGACGA,0.0574
18,AAGAGGAC,0.0335
19,CACATCAC,-0.107
20,CTAAGTAC,0.138
21,GCATAAAC,0.0323
22,ATCCTGTC,0.11
23,AACATAGT,-0.0153
24,ATAGCTCA,-0.195
25,CACTAAGA,0.169

row,Sequence,PBM E-score
1,CGGGCCAA,-0.0575
2,GCAGCGCC,-0.103
3,ACGTAGCT,-0.0308
4,CGGTGTCC,0.304
5,TGCCCTAA,-0.0784
6,AAGATAAC,0.0371
7,ACTTTTTA,0.205
8,GGCGTGTA,0.0924
9,ATCGTAAA,0.0575
10,GCAACGCA,-0.271
11,CTGGGTGA,-0.0355
12,ATGCGTTA,-0.0377
13,AATAGCAA,0.151
14,CGTAGTAG,-0.203
15,ATTTCGAG,0.234
16,ATACGGAG,-0.00987
17,GCTTCTTA,-0.0464
18,GAATCGCA,-0.169
19,CGTAGCGC,-0.274
20,ACCGATAC,0.0522
21,ACAAGACA,0.34
22,AGGGGCAG,-0.13
23,ATTGGTAG,0.0226
24,ATCCCGAC,0.154
25,AAAAGCAA,0.0931

row,Sequence,PBM E-score
1,GGTAAGTA,0.13
2,GCCGTAGA,0.193
3,TGAAGCAA,-0.00883
4,CCTGACTA,0.147
5,ATAATCTC,0.019
6,AGAATTAG,-0.135
7,ATGCCTAC,-0.129
8,GTTTGTCA,0.299
9,ATCGTTAG,0.0232
10,AATCGAGA,0.0547
11,CATTTACG,0.0753
12,CCGCGCTC,-0.0142
13,AACCTGCT,-0.0314
14,GGTCTTTA,0.00251
15,ATGCGAAC,-0.0313
16,AGAGTCGG,-0.128
17,TCTACGCA,-0.0155
18,GAACTCGA,-0.104
19,AGAAAAGA,0.162
20,CACCAATG,-0.00217
21,AACTTGCC,0.0239
22,AACCCGTG,-0.246
23,CGAAGTTC,0.0811
24,GCAACCGA,0.0638
25,GGATGTGA,0.0236

row,Sequence,PBM E-score
1,TCTAAGCA,0.0219
2,AATAGTGG,0.0374
3,AAAAATCT,0.202
4,GGAATTCC,0.0467
5,AACGAGGA,0.0106
6,GAACCCGC,-0.25
7,CGGTCGGC,-0.336
8,AGAGTTAA,0.0364
9,CAAAATCC,0.153
10,ATAACCAA,0.115
11,AAGTCACG,0.122
12,ATAATCCC,-0.0565
13,AGCCACAA,0.0571
14,AATGCACG,-0.131
15,AGTTTAGC,0.0785
16,CAGTTTAC,-0.0477
17,GACCTCGC,-0.0387
18,CCGATGGA,-0.043
19,GAAGACAC,0.181
20,CGTTTAAA,0.215
21,GTCATAGA,0.141
22,CCGTGAAG,-0.198
23,ATTGGTGG,-0.115
24,ACGTACAT,0.307
25,CTTAATCC,-0.0841

row,Sequence,PBM E-score
1,CATCGGTA,0.115
2,GGGGTGAA,-0.0529
3,GCAGTCCC,-0.296
4,GTTCTTAA,0.0973
5,CTTTCTGC,0.0309
6,GGTGCACC,-0.242
7,CAGAATCA,0.00097
8,AACTATAG,-0.0296
9,CTCGACCA,-0.161
10,GGCTACGA,-0.0567
11,ACGCAGTC,-0.324
12,AGGACCCA,-0.221
13,AATTGGAC,0.342
14,CCATGCGC,-0.0469
15,AATGTACA,0.294
16,CCTAGTAA,-0.176
17,CATCATCC,-0.0785
18,CCGTCTAC,0.0392
19,CTTTCAAA,0.155
20,ATTGCTCG,-0.0671
21,CCGAGGCA,-0.00905
22,CACGCCTC,-0.132
23,AAACGGAT,0.178
24,GCCGAATA,0.106
25,GCACTTAA,0.135

row,Sequence,PBM E-score
1,ACCTGACT,0.044
2,AAAAGCGG,0.0923
3,CCGCGAAG,-0.11
4,AATTGTAG,0.167
5,CGACGCCA,-0.267
6,AGTGTCCA,0.219
7,ACCTCGAT,0.15
8,AAGACAGG,0.0873
9,CTTTATGA,0.0103
10,GAGAGTCC,-0.215
11,TCACTAAA,0.156
12,CGACTAAA,0.033
13,AGCACAGG,-0.0335
14,ATCACGAA,-0.00412
15,AAATAAAG,0.086
16,GACAGTTA,0.163
17,AGATCACG,-0.0191
18,AGAACTGC,-0.0166
19,TCCGCGAA,0.149
